Laboratory results: publication PMC12040169 (PLOS Biology, 2025)
The list shows a part of the results.

System: T1, C. trachomatis L2/434/Bu expressing GFP (CTL2-GFP)
T1 construct: L2/434/Bu GFP intracellular growth in HeLa cells
Parameters: species or system HeLa; C. trachomatis total inclusion area by high-content imaging, normalised to DMSO
Conditions: total inclusion area; 28.5 h, 10 µM; inhibitor
How it was run: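 Bulk GFP and resorufin signals were read first. Wells were then fixed, stained with Hoechst and imaged to detect GFP inclusions and host nuclei. MICs followed the previously described calculation.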

| SMILES | % of control remaining |
| --- | --- |
| COc1cc(C(=O)NCc2c(-c3ccccc3)noc2C)cc(OC)c1OC [CBK144097] | 97.0381 |
| CCn1c(C)cc(C(=O)CSc2nnc(N3CCCC3)n2C2CC2)c1C [CBK306035] | 85.0176 |
| O=C(c1ccc(S(=O)(=O)N2CCCCC2)cc1)N1CCN(CCN2C(=O)c3cccc4cccc(c34)C2=O)CC1 [CBK262536] | 99.4319 |
| O=C1/C(=C/c2cn(Cc3cccc4ccccc34)c3ccccc23)C(O)=NN1c1ccccc1 [CBK264849] | 117.063 |
| Nc1nc2sc3c(c2cc1C(=O)N1CCOCC1)CCCC3 [CBK022399] | 100.709 |
| O=C(NC1CC1)c1ccc(-c2cnc3[nH]c(=O)n(-c4ccc5[nH]ccc5c4)c3n2)cc1 [CBK064916] | 146.881 |
| CN1CCC(CNS(=O)(=O)c2cccc3c2OCC3)CC1=O (centres unmarked) [CBK305465] | 43.2454 |
| COc1ccc(CN(C)C2CCOCC2)cc1Cn1cncn1 [CBK306728] | 54.3584 |
| O=C(CNC1Cc2ccccc2C1)Nc1ccc(Cl)cc1C(=O)c1ccccc1Cl [CBK074764] | 67.5227 |
| COc1ccc(C[C@@H]2NC(=O)[C@@H]3CN(C(=O)c4ccc(OC)cc4)CCN3C2=O)cc1 [CBK289598] | 105.92 |
| Cc1cc(C)c(CNC(=O)C2CC(=O)N(Cc3ccccn3)C2)cn1 (centres unmarked) [CBK304673] | 112.331 |
| Cc1c(C(=O)NCc2ccccn2)nnn1-c1cccc(C(F)(F)F)c1 [CBK107395] | 91.3765 |
| COc1cccc(C2(NC(=O)c3cnsc3)CCCC2)c1 [CBK283611] | 119.336 |
| COc1ccc(-n2[nH]c(C)c(Cc3c(Cl)cccc3Cl)c2=O)cc1 [CBK084521] | 97.7883 |
| CC(=O)Nc1ccc(S(=O)(=O)Nc2ccc(S(=O)(=O)Nc3ccc(C)c(C)c3)cc2)cc1 [CBK264643] | 79.5823 |
| CCN(Cc1ccncc1)C(=O)NCc1cc(C)on1 [CBK155122] | 93.4273 |
| CC(C)[C@H](CO)Nc1nccnc1-c1cccs1 [CBK089047] | 127.285 |
| Cc1ccc2c(c1)nc(CNC(=O)NCCCO)n2C [CBK306174] | 73.5653 |
| CN(C)CCNc1nc(-c2ccncc2)cnc1N [CBK063580] | 89.4124 |
| Cc1cc(C)n(CC2CCCCN2C(=O)COc2cccnc2)n1 (centres unmarked) [CBK304040] | 82.2329 |
| O=C(Cn1cc(C(=O)COc2ccccc2)c2ccccc21)Nc1ccccc1 [CBK267653] | 95.3921 |
| O=C(C1=C(O)C(=O)N(c2ncccn2)C1c1cccc([N+](=O)[O-])c1)c1ccc(F)cc1 (centres unmarked) [CBK264932] | 107.215 |
| CC(Nc1oc(-c2ccco2)nc1S(=O)(=O)c1ccc(F)cc1)c1ccccc1 (centres unmarked) [CBK267671] | 110.816 |
| OCCOc1ccccc1N1CCOCC1 [CBK001767C] | 85.7772 |
| O=C(Nc1cc(-c2nc3ncccc3o2)ccc1Cl)c1cccnc1 [CBK269700] | 89.1811 |
| CCOCC1CCN(C(=O)c2ncsc2Nc2cccnc2)C1 (centres unmarked) [CBK304514] | 101.967 |
| COc1c(C)cnc(COC(=O)N2CCOCC2)c1C [CBK200145] | 119.785 |

| SMILES | % of control remaining |
| --- | --- |
| CC(C)CC(CC(C)C)OCC(=O)NCC1(c2ccc3ccccc3c2)CCC1 [CBK067404] | 60.9792 |
| O=C(NC1CCCc2nc(N3CCC(CO)CC3)ncc21)C1CCCC1 (centres unmarked) [CBK307415] | 71.4707 |
| Cc1c(C(=O)N2CCN(C3CCCCC3)C(=O)C2)[nH]c2ccccc12 [CBK282539] | 101.239 |
| COC1CCC(C(=O)Nc2cnc(-c3cccc(OC(F)(F)F)c3)c(-c3cccnc3)n2)CC1 (centres unmarked) [CBK036754] | 127.037 |
| Cc1ccccc1CN1CCCN(C(=O)CCNC(=O)c2ccco2)CC1 [CBK297718] | 104.262 |
| c1csc(-c2cncc(NCCCN3CCOCC3)n2)c1 [CBK065623] | 107.941 |
| N#CCCN(C(=O)Nc1ccc2c(c1)OCCO2)C1CCCCC1 [CBK156364] | 102.087 |
| C[C@H]1[C@@H]2[C@@H](O)C([C@H](C)C(=O)N3CCCC3)CC[C@@]2(C)CC[C@@H]1NC(=O)c1ccncc1 (some centres unmarked) [CBK289450] | 101.922 |
| CCc1nc2ccc(C(=O)NCCOc3ccc(OC)cc3)cn2c1N(C)CC [CBK145504] | 91.1592 |
| O=c1oc(-c2cccc(F)c2)nc2ccc(Cc3ccc4nc(-c5cccc(F)c5)oc(=O)c4c3)cc12 [CBK262856] | 86.5178 |
| O=C(O)COc1ccc(S(=O)(=O)N2CCCCC2)cc1Cl [CBK268419] | 113.373 |
| CCc1cccc2c(CC(=O)NC3CCCOC3)c(C)[nH]c12 (centres unmarked) [CBK282584] | 117.025 |
| Cn1cnnc1C1CCCN(C(=O)NCc2cccc(F)c2)C1 (centres unmarked) [CBK305792] | 52.8821 |
| CCOc1ccccc1-c1ccccc1NC(=O)c1cc(=O)n(C)c2ccccc12 [CBK285843] | 91.7195 |
| O=C(Cn1nnc2ccccc2c1=O)NCC(F)(F)F [CBK304533] | 38.3234 |
| O=C(CCn1c(C(F)F)cc2cccnc21)NCc1ccc(F)cc1 [CBK285067] | 84.6539 |
| COc1ccc(/C=N/NC(=O)CCc2c(C)n[nH]c2C)cc1O [CBK262894] | 97.3159 |
| COc1ccc(-c2cccc(Nc3cccnc3)n2)cc1OC [CBK037644] | 113.714 |
| Cc1c(C)n(C)c2nc(N3CCCC3)nc(N3CCCC3)c12 [CBK016683C] | 97.2354 |
| COc1ccc(Cn2nc(NC(=O)OC(C)C)c3ccccc32)cc1 [CBK048404] | 108.478 |
| Cc1ccc(CSCC(=O)N2CCC(Cc3ccccc3)CC2)cc1 [CBK058739] | 64.5159 |
| CCC(C)N1CCN(S(=O)(=O)c2ccccc2[N+](=O)[O-])CC1 (centres unmarked) [CBK264270G] | 115.069 |
| Cc1cc2c3c(c1)c1c(n3CCC2)CCNCC1 [CBK018380C] | 69.6598 |
| CC(=O)C1=C(c2ccccc2)NC(=S)NC1c1cc(Cl)ccc1OCC(=O)O (centres unmarked) [CBK267300] | 105.442 |
| Cc1nc(CC(=O)OC(C)C(=O)N2CCCc3ccccc32)cs1 (centres unmarked) [CBK305285] | 61.7802 |
| Cc1ccc(-c2cncc(N3CCN(CCO)CC3)n2)cc1C [CBK065912] | 101.283 |
| CC1=Nc2ccc(Cl)cc2C(C)(C)O1 [CBK022763C] | 81.6762 |

| SMILES | % of control remaining |
| --- | --- |
| c1cc(-c2nccnc2OCCn2ccnc2)ccn1 [CBK106737] | 90.6683 |
| O=C(c1ccccc1F)N1CCC(c2cc3ncccc3[nH]2)CC1 [CBK283391] | 99.5982 |
| O=C(CCN1C(=O)C2C3CCC(C3)C2C1=O)OCC(=O)c1ccc(-c2ccccc2)cc1 (centres unmarked) [CBK265113] | 126.803 |
| Cc1ccnc(NCC2CCN(c3cc(=O)n4oc(C)cc4n3)C2)c1 (centres unmarked) [CBK305191] | 36.3535 |
| c1ccc(CNc2nccn3ccnc23)nc1 [CBK037526] | 105.494 |
| CN(C)CCN1CCN(c2nccnc2-c2cccc(CO)c2)CC1 [CBK037047] | 125.664 |
| Cc1ccccc1-n1ccn(C(=O)CCC2CCCC2)c1=O [CBK106571] | 68.6864 |
| Cn1cncc1C(=O)N1CCN(Cc2ccccc2)CC1 [CBK200178] | 103.719 |
| COc1cncc(-c2cnc(N)c(NC3CCOCC3)n2)c1 [CBK063846] | 95.5749 |
| Cc1ccc(S(=O)(=O)N(CC(=O)Nc2cccnc2)c2ccc(C)c(C)c2)cc1 [CBK263974] | 99.1238 |
| CCc1nc2ccc(C(=O)NCCN3CCNC3=O)cn2c1N(CCN(C)C)CC1CC1 [CBK145469] | 77.0559 |
| CCNc1nc(NCc2ccccc2)nc(Oc2ccc(O)nn2)n1 [CBK266591] | 124.33 |
| Cc1cc(C)c(NC(=O)CSc2nnc(-c3cccnc3)s2)c([N+](=O)[O-])c1 [CBK268929] | 108.697 |
| O=C1CCCc2nccc(-c3ccc(Cl)cc3)c21 [CBK287870] | 66.7863 |
| CN(Cc1ccncc1)C(=O)CCn1c(C(F)F)cc2cccnc21 [CBK285070] | 94.1634 |
| CCOc1ccc(-c2cn(S(=O)(=O)c3cccc4nsnc34)nc2N)cc1 [CBK267883] | 76.6439 |
| Cc1ccc(C2CCC(C(=O)O)C(C(=O)O)C2)cc1C (centres unmarked) [CBK287184] | 89.1689 |
| COc1ccc(CCN(C)Cc2ccccn2)cc1OC [CBK261912] | 101.953 |
| CC(Cn1cncc1-c1cnn(C)c1)Oc1ccccc1Cl (centres unmarked) [CBK281737] | 90.8962 |
| CC1CCc2n[nH]c(C(=O)N3CCc4ncc(Cl)cc4C3)c2C1 (centres unmarked) [CBK284874] | 95.7645 |
| Cc1cccc(CC(=O)N2CCC(Cc3cccc(-c4cccs4)c3)(C(N)=O)CC2)c1 [CBK285752] | 105.501 |
| CN1CCOCC(CNC(=O)c2ccc(-c3cnc(N)nc3)cc2)C1 (centres unmarked) [CBK307119] | 56.2649 |
| O=C(Nc1ccc(S(=O)(=O)N2CCCCCC2)cc1)c1nc2ncccn2n1 [CBK266155] | 121.592 |
| COc1ccc(/C=C2\S/C(=N\Cc3ccccc3)N(Cc3ccccc3)C2=O)cc1C(=O)O [CBK262715] | 114.937 |
| Cc1c(F)cccc1CN(CCCN)C(=O)Nc1ccccc1C(C)(C)C [CBK034699C] | 52.1823 |
| O=C(c1csnn1)N1Cc2ccccc2C1 [CBK200325] | 99.2702 |
